Results on eight molecules are retold here after the supplement of paper PMC8674133.

Recombinant human monoclonal antibodies (heavy:light variable regions). ELISA EC50 on the named antigen, from 10 µg/ml down; IC50 / IC90 against spike pseudovirus on 293T-ACE2 cells, 48 h; lower = stronger. Calls: IC50 above 1,000 ng/ml = non-neutralizing; EC50 above 2,000 ng/ml = non-binder. The source prints 1000 for neutralization that was not reached; it is given as >1000 ng/ml. A few antibodies were first reported in earlier work of the same group.

Experiment [1] deals with SARS-CoV-2 Wuhan-Hu-1 spike pseudovirus. Nature of the experiment: pseudovirus neutralization IC50; higher = weaker neutralization. The method, then:
(§1)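 Single-round luciferase reporter pseudovirus mixed with antibody dilutions and put on 293T-ACE2 cells for 48 h; signal relative to no-antibody wells, four-parameter fit.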

Experiment [2] shares this target. Nature of the experiment: pseudovirus neutralization IC90; higher = weaker neutralization. On the procedure:
as §1

Experiment [3] concerns the target SARS-CoV-2 Wuhan-Hu-1 spike receptor-binding domain. Nature of the experiment: ELISA binding EC50; higher = weaker binding; ELISA of recombinant human antibody on coated antigen, from 10 µg/ml in fourfold dilutions; four-parameter fit.

B1: C1346 (protein)
chain 1: QVQLQESGPGLVKPSDTLSLTCTVSGDSIKNYYWNWIRQPPGKRLEWIASVYYSGTTKYTPSLKSRATITIDTSKNQFSLTLKSFSAADTAVYFCARSPAWTRDYQFDQWGQGTLVTVSS
chain 2: SYELTQPPSVSVSPGQTARITCSGDALPRRFAYWYQQKSGQAPVMIIYEGSKRPSGIPERFSGSSSGTVATLTITGAQVEDEADYFCYSRDDSDDYRVFGGGTKLTVL
For the molecule B1, in experiment [1], the “pseudovirus neutralization IC50” value was above 1 µg/mL. Also, the “pseudovirus neutralization IC90” value in experiment [2] was above 1 µg/mL. Further, the “ELISA binding EC50” value in experiment [3] is above 10 µg/mL.

B2: C1347 (protein)
chain 1: VQLVESGGGVVQPGRSLRLSCAASGFTFSNYGMHWVRQAPGKGLEWVAVISYDGSNKYYADSVKGRFTISRDNSKNTLYLQMNSLRAEDTAVYYCAKGHDFGAPDYWGQGTLVTVSS
chain 2: QSALTQPASVSGSPGQSITISYTGTSSDVGSYNLVSWYQQHPGKAPKLMIYEGSKRPSGVSNRFSGSKSGNTASLTISGLQAEDEADYYCCSYAVSSTYVFGTGTEVTVL
Turning to B2, in experiment [1], the “pseudovirus neutralization IC50” value is 0.00305 µg/mL. Besides, the “pseudovirus neutralization IC90” value in experiment [2] turned out to be 0.0368 µg/mL. The “ELISA binding EC50” value in experiment [3] amounted to 0.00113 µg/mL.

B3: C1341 (protein)
chain 1: EVQLVESGGGLVQPGGSLRLSCAASGFTVSSNYMTWVRQAPGKGLEWVSVIYSGGSTYYADSVKGRFTISRDSSKNTLYLQMNSLRVEDTAVYYCASLEQLTYYFDYWGQGTLVTVSS
chain 2: SYELTQPPSVSVAPGKTARITCGGNNIGSKSVHWYQQKPGQAPVLVVYDDSDRPSGIPERFSGSNSGNTATLTISRVEAGDEADYYCQVWDSFIDRHAWVFGGGTKLTVL
On to B3, for which the “pseudovirus neutralization IC50” value in experiment [1] is 0.658 µg/mL. The “pseudovirus neutralization IC90” value in experiment [2] was above 1 µg/mL. Further, in experiment [3], the “ELISA binding EC50” value was 0.0014 µg/mL.

B4: C1344 (protein)
chain 1: EVQLVESGGGLIQPGGSLRLSCAASGFTVSSNYMSWVRQAPGKGLEWVSIIYSGGSTFYADSVKGRFTISRDSSKNTLYLQINSLRAEDTAVYYCARDVPRNSGGYWGQGTLVTVSS
chain 2: IRMTQSPSSLSASVGDRVTITCQASQDISNYLNWYQQKPGKAPKLLIYDASNLETGVPSRFSGSGSGTDFTFTISSLQPEDIATYYCQQYDNLPITFGQGTRLEIK
Take B4: the “pseudovirus neutralization IC50” value in experiment [1] was 0.0181 µg/mL. Besides, the “pseudovirus neutralization IC90” value in experiment [2] was determined as 0.0895 µg/mL. Moreover, the “ELISA binding EC50” value in experiment [3] was 0.00262 µg/mL.

B5: C1372 (protein)
chain 1: QVQLQESGPGLVKPSETLSLTCTVSGGSISSYYWSWIRQPPGKGLEWIGYIYYSGSTNYNPSLKSRVTISVDTSKNQFSLKLSSVTAADTAVYYCARGGSTLWFGSEPNFDYWGQGTLVTVSS
chain 2: NFMLTQPHSVSESPGKTVTISCTCSSGSIASNYVQWYQQRPGSSPTTVIYEDNQRPSGVPDRFSGSIDSSSNSASLTISGLKTEDEADYYCQSYDSSNVVFGGGTKLTVL
On to B5, for which the “pseudovirus neutralization IC50” value in experiment [1] is above 1 µg/mL. Moreover, the “pseudovirus neutralization IC90” value in experiment [2] was above 1 µg/mL. In experiment [3], the “ELISA binding EC50” value worked out at 0.00143 µg/mL.

B6: C1345 (protein)
chain 1: EVQLVESGGGLVQPGRSLRLSCAASGFTFDDYAMHWVRQAPGKGLEWVSGISWNSGSIGYADSVKGRFTISRDNAKNSLYLQMNSLRAEDTALYYCATQHIRFLEWGRDELYSGMDVWGQGTTVTVSS
chain 2: IRMTQSPSSLSASVGDRVTITCRASQGISNYLAWYQQKPGKVPKLLIYAASTLQSGVPSRFSGSGSGTDFTLTISSLQPEDVATYYCQKYNSAPFTFGPGTKVDIK
Consider B6, for which the “pseudovirus neutralization IC50” value in experiment [1] is above 1 µg/mL. In experiment [2], the “pseudovirus neutralization IC90” value was above 1 µg/mL. For the same molecule, the “ELISA binding EC50” value in experiment [3] was found to be 0.0022 µg/mL.

B7: C2017 (protein)
chain 1: QVQLVQSGAEVKKPGASVKVSCKASGYTFTSYDINWVRQATGQGLEWMGWMNPNSGNTGYAQKFQGRVTITRNTSISTAYMELSSLRSEDTAVYYCARGTYCSSTSCYTRDWFDPWGQGTLVTVSS
chain 2: SYELTQPPSVSVAPGQTARITCGGNNIGSKSVHWYQQKPGQAPVLVVYDDSDRPSGIPERFSGSNSGNTATLTISRVEAGDEADYYCQVWDSSSDPYYVFGTGTKVTVL
B7: the “pseudovirus neutralization IC50” value in experiment [1] was above 1 µg/mL. Moreover, the “pseudovirus neutralization IC90” value in experiment [2] was above 1 µg/mL. The “ELISA binding EC50” value in experiment [3] amounted to 0.00189 µg/mL.

B8: C1371 (protein)
chain 1: QLQLQESGPGLVKPSETLSLTCTVSGGSISSGAYYWGWIRQPPGKGLEWIGNIYYSGSTYYNPSLKTRVTISLDTSKNQFSLKLNSVTAADTAVYYCARQNGLCDYWGQGTLVTVSS
chain 2: DIQMTQSPSSLPASVGDRVTITCRASQGISNSLAWYQQNPGKAPKLLVYAASTLESGVPSRFSGSGSGTDFTLTISSLQPEDFATYYCQQYYSPPPLTFGQGTKLEIK
B8: the “pseudovirus neutralization IC50” value in experiment [1] was 0.00505 µg/mL. Besides, the “pseudovirus neutralization IC90” value in experiment [2] was 0.0298 µg/mL. The “ELISA binding EC50” value in experiment [3] was determined as 0.00178 µg/mL.
